# Experimental data as given in the supplement of paper PMC3334620.
# Whole data set: some 33,000 sequences, median “E-score (-0.5 to 0.5)” near -0.035, cut for the highest 2% near 0.34. Some of the results follow.
# Target: T1, Mot3 (UniProt P54785)
# T1 sequence: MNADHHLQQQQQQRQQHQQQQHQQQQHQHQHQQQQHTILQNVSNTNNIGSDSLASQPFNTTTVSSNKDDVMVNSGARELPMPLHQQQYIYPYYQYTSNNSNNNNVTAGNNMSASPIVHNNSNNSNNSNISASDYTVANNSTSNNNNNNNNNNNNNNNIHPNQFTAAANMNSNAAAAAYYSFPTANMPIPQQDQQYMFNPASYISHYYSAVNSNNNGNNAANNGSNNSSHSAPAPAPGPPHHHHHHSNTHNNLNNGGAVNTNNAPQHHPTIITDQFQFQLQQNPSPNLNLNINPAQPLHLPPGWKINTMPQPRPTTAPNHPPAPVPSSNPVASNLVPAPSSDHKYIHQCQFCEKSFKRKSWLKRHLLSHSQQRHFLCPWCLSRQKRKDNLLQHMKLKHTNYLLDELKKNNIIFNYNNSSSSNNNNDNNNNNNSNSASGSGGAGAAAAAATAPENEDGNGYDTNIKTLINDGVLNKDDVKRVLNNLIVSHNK
# Experiment: PBM E-score (8-mer binding enrichment) (E-score (-0.5 to 0.5)); higher = stronger / more preferred TF binding; most listed sequences are background and not binding sites
# Conditions: protein concentration: 200 nM; construct: GST-full length
# In short: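 Each ungapped eight-base word and its reverse complement, pooled, received an E-score from the Universal PBM Analysis Suite. Underlying scans, normalised with masliner, recorded fluorescent anti-GST bound to GST-tagged yeast transcription factors. These were applied at about 100-200 nM to universal all-10-mer Agilent arrays double-stranded by primer extension.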
row,Sequence,PBM E-score
1,TATCCGCA,0.134
2,CGACCAAG,-0.0763
3,TGGAAAAA,0.0684
4,AGTACTAG,0.0604
5,CTTTTGAC,0.26
6,AGAACAGA,0.158
7,CATGCTCC,0.0425
8,AGTGCGGG,-0.241
9,CTCTTCAG,-0.203
10,AGGCGCTG,0.199
11,ATGTTCAC,0.213
12,CCGACATC,-0.275
13,GAAGTGGC,-0.22
14,CCTACGGA,0.119
15,GCCGTTTA,-0.0385
16,CGTTTGTA,0.167
17,ACCGGCAG,-0.222
18,CAGCGCGC,-0.043
19,AACGACTC,-0.0648
20,GCTACACA,0.253
21,CTGGAAAC,0.0157
22,TAGAGCCA,-0.0709
23,CATGAGTC,0.0784
24,AATGAATC,-0.0146
25,CACTAATC,-0.126

row,Sequence,PBM E-score
1,AGCTGCTA,-0.2
2,GCTACGAC,-0.0179
3,CATTTTTA,0.0617
4,CACTTCTG,-0.0864
5,CACGAATC,0.14
6,CGTATACA,0.251
7,ATTAGTAA,0.164
8,GAGCCCTA,-0.152
9,ATCGTTCG,-0.025
10,AATCCTGA,-0.0452
11,CATGTTCA,0.296
12,CCCTTACA,0.202
13,CCGAGTGC,-0.213
14,GTTCTTGA,0.102
15,CATCCATC,-0.132
16,GCGTCGAC,-0.066
17,GGAAAACC,0.185
18,GCCCGTCA,-0.258
19,CTACATTC,0.0249
20,GACGTTCA,-0.16
21,GCGGCCCA,-0.201
22,TGCTTTAA,0.142
23,ATTGGGAA,-0.213
24,CTATTCCC,-0.154
25,CCACCACA,0.0219

row,Sequence,PBM E-score
1,AACAAAGG,0.155
2,CCGACTTA,-0.115
3,GTGTCGAA,0.0976
4,AGCAGGAG,-0.0982
5,ATTGTGTA,0.346
6,AGAGTCAG,-0.0441
7,AGTGGGTG,-0.124
8,AACCCTGG,-0.127
9,ACTTAGCC,-0.115
10,AATGTGTG,0.166
11,CGCTGTTA,-0.0162
12,ACATATCT,0.215
13,CTTTTTGA,0.00873
14,CCTTGACA,0.133
15,CCCGTCAA,-0.124
16,CATTGCCG,0.00256
17,AGTAGACA,0.105
18,CACACTTC,0.0757
19,GAAGCCAC,-0.196
20,GAAGCAGA,-0.0484
21,AAACAGCT,-0.268
22,GATGAATA,0.108
23,AGGTACGA,0.346
24,AGATGATA,0.0421
25,AACCTAAA,0.198

row,Sequence,PBM E-score
1,GGACCGTA,-0.201
2,ATCGTCTG,-0.22
3,CCCGCGGG,-0.0809
4,ACGTGCCA,0.00099
5,CCGGAGTA,-0.0441
6,CTGCGTTC,0.0947
7,CATACCAA,0.124
8,AGACGATC,-0.288
9,ACTGGGAC,0.00503
10,GCACAGAA,0.0237
11,AACAACGT,0.113
12,GCACAGCA,0.144
13,CTGATAAA,0.0655
14,ACCGAGTC,-0.166
15,ACCGACAG,-0.18
16,CCCGACCC,-0.183
17,ACTATATA,0.137
18,CATGCTAC,-0.0683
19,GATAGCCA,-0.3
20,AGGCCCAG,-0.143
21,TATACTAA,0.0563
22,ATATTCGG,-0.0963
23,ATTTACGC,0.239
24,GGCGGCCA,-0.169
25,AAGTTTCA,0.0149

row,Sequence,PBM E-score
1,CGCACACA,0.0423
2,GGCGCCAA,0.04
3,CGTCAGTC,-0.0396
4,GCTTGCTA,-0.197
5,AGTTGAGA,-0.078
6,GCGAGCTA,-0.129
7,AGAGTAAA,0.162
8,ACGTTACT,0.137
9,CATTGTCG,0.149
10,TCAAAGCA,0.0103
11,AACACAAA,0.22
12,ACAGTCAA,0.0247
13,ATGCGTCC,-0.143
14,GGACGCAA,-0.294
15,ATAGTAAC,0.0835
16,TAACAGTA,0.0732
17,CTCGAACC,-0.164
18,CACAGGAG,0.0555
19,CTGTGTGC,0.085
20,CGCTACGA,-0.063
21,CGTGCCCC,0.00946
22,GAAACTAC,0.139
23,CCTCCAGC,-0.32
24,ATATACAT,0.324
25,AGGTATTG,0.129

row,Sequence,PBM E-score
1,ACGACCTC,0.101
2,ATTGTTTA,0.0804
3,GAACACTA,0.0431
4,CATTGTAG,0.106
5,CTTGTTCC,0.163
6,CAGGCTAG,-0.29
7,ACGCACGA,0.275
8,CTGTGAAA,0.21
9,ATAGTTCG,0.0253
10,AAATTCCT,0.00581
11,CGTGTCAG,0.223
12,ATAAGATC,-0.131
13,CACAACCG,0.107
14,CAGATCCC,-0.0782
15,CCTTCTTA,0.263
16,GGCAGCCA,-0.077
17,ATGGACGA,-0.0659
18,GCTCTAGA,-0.321
19,CTACTTGA,0.0707
20,ATGTGGAC,-0.0682
21,TAACACTA,0.188
22,ACCGGGAG,-0.119
23,ATGTCTCC,0.0109
24,ACCAAAAC,0.0416
25,CGTGAAGA,-0.047

row,Sequence,PBM E-score
1,CTGGACGC,-0.307
2,GAATATCA,-0.328
3,AGGACCGG,-0.238
4,GGACCGGA,-0.397
5,GTGGAATA,0.0294
6,ACTCCGCG,-0.273
7,GACGAGCA,-0.216
8,ACGACAGA,-0.138
9,CGCCAAAA,-0.025
10,ACTTCGAC,0.0681
11,CATGCTGG,-0.0121
12,CTCTGATC,-0.0566
13,ATCCAAGA,-0.0318
14,TGAGATAA,0.0186
15,CTGTTACC,0.173
16,GCGTAGAC,0.00486
17,TCGACCAA,0.0354
18,GTGGCGTA,-0.0441
19,TATTCCAA,0.122
20,ACCGCCAA,-0.161
21,CATTCTTA,-0.0851
22,AGGAACTG,0.413
